According to the supplement of paper PMC8728848:
The list shows a part of the results.

Experiments:
Experiment in all cases: glycan array binding signal (z-score within array); higher = stronger binding
Conditions in all cases: glycan notation: IUPAC condensed, linker removed
[1] = target: Gal(b1-3)[Fuc(a1-4)]GlcNAc(b1-3)Gal(b1-4)[Fuc(a1-3)]GlcNAc
Summary of the method: (§1)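 Glycan array binding is given as a within-array Z-score, which can be read as non-binding when negative. The arrays, 3228 of them, came from the Consortium for Functional Glycomics database and were retained only where the protein sequence was available. Z-scores were averaged across arrays of the same protein sequence at different concentrations or buffers and across linkers.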

[2] = target: Gal(b1-3)[GlcNAc(b1-6)]GalNAc
Summary of the method: as §1

[3] = target: Gal(b1-3)[Neu5Ac(a2-6)]GalNAc
Summary of the method: as §1

[4] = target: Gal(b1-3)[Neu5Ac(a2-6)]GlcNAc(b1-6)Gal(b1-4)Glc
Summary of the method: as §1

[5] = target: Gal(b1-3)[Neu5Ac(b2-6)]GalNAc
Summary of the method: as §1

[6] = target: Gal(b1-4)GalNAc(a1-3)[Fuc(a1-2)]Gal(b1-4)GlcNAc
Summary of the method: as §1

[7] = target: Gal(b1-4)GalNAc(b1-3)[Fuc(a1-2)]Gal(b1-4)GlcNAc
Summary of the method: as §1

Gal(b1-4)Glc = target: Gal(b1-4)Glc
Summary of the method: as §1

Gal(b1-4)Glc6S = target: Gal(b1-4)Glc6S
Summary of the method: as §1

Gal(b1-4)GlcNAc = target: Gal(b1-4)GlcNAc
Summary of the method: as §1

[8] = target: Gal(b1-4)GlcNAc(a1-6)Gal(b1-4)GlcNAc
Summary of the method: as §1

[9] = target: Gal(b1-4)GlcNAc(b1-2)Man(a1-3)[Gal(b1-4)GlcNAc(b1-2)Man(a1-6)]Man(b1-4)GlcNAc(b1-4)GlcNAc
Summary of the method: as §1

[10] = target: Gal(b1-4)GlcNAc(b1-3)Gal(b1-3)GlcNAc
Summary of the method: as §1

[11] = target: Gal(b1-4)GlcNAc(b1-3)Gal(b1-4)Glc
Summary of the method: as §1

[12] = target: Gal(b1-4)GlcNAc(b1-3)Gal(b1-4)GlcNAc
Summary of the method: as §1

[13] = target: Gal(b1-4)GlcNAc(b1-3)Gal(b1-4)GlcNAc(b1-3)Gal(b1-4)GlcNAc
Summary of the method: as §1

[14] = target: Gal(b1-4)GlcNAc(b1-3)Gal(b1-4)[Fuc(a1-3)]GlcNAc(b1-3)Gal(b1-4)[Fuc(a1-3)]GlcNAc
Summary of the method: as §1

[15] = target: Gal(b1-4)GlcNAc(b1-3)GalNAc
Summary of the method: as §1

[16] = target: Gal(b1-4)GlcNAc(b1-3)[Gal(b1-4)GlcNAc(b1-6)]Gal(b1-4)GlcNAc
Summary of the method: as §1

[17] = target: Gal(b1-4)GlcNAc(b1-3)[GlcNAc(b1-6)]Gal(b1-4)GlcNAc
Summary of the method: as §1

[18] = target: Gal(b1-4)GlcNAc(b1-6)Gal(b1-4)GlcNAc
Summary of the method: as §1

[19] = target: Gal(b1-4)GlcNAc(b1-6)Gal(b1-4)GlcNAc(b1-6)GalNAc
Summary of the method: as §1

[20] = target: Gal(b1-4)GlcNAc(b1-6)GalNAc
Summary of the method: as §1

[21] = target: Gal(b1-4)GlcNAc(b1-6)[Gal(b1-3)]GalNAc
Summary of the method: as §1

Gal3S(b1-3)GalNAc = target: Gal3S(b1-3)GalNAc
Summary of the method: as §1

Gal3S(b1-3)GlcNAc = target: Gal3S(b1-3)GlcNAc
Summary of the method: as §1

[22] = target: Gal3S(b1-3)[Fuc(a1-4)]GlcNAc
Summary of the method: as §1

Gal3S(b1-4)Glc = target: Gal3S(b1-4)Glc
Summary of the method: as §1

Gal3S(b1-4)Glc6S = target: Gal3S(b1-4)Glc6S
Summary of the method: as §1

Gal3S(b1-4)GlcNAc = target: Gal3S(b1-4)GlcNAc
Summary of the method: as §1

Gal3S(b1-4)GlcNAc6S = target: Gal3S(b1-4)GlcNAc6S
Summary of the method: as §1

[23] = target: Gal3S(b1-4)[Fuc(a1-3)]Glc
Summary of the method: as §1

Gal3S4S(b1-4)GlcNAc = target: Gal3S4S(b1-4)GlcNAc
Summary of the method: as §1

Gal3S6S(b1-4)GlcNAc = target: Gal3S6S(b1-4)GlcNAc
Summary of the method: as §1

Gal3S6S(b1-4)GlcNAc6S = target: Gal3S6S(b1-4)GlcNAc6S
Summary of the method: as §1

Gal4S(b1-4)GlcNAc = target: Gal4S(b1-4)GlcNAc
Summary of the method: as §1

Gal4S6S(b1-4)GlcNAc = target: Gal4S6S(b1-4)GlcNAc
Summary of the method: as §1

Gal6S(b1-4)Glc = target: Gal6S(b1-4)Glc
Summary of the method: as §1

Gal6S(b1-4)Glc6S = target: Gal6S(b1-4)Glc6S
Summary of the method: as §1

Gal6S(b1-4)GlcNAc = target: Gal6S(b1-4)GlcNAc
Summary of the method: as §1

Gal6S(b1-4)GlcNAc6S = target: Gal6S(b1-4)GlcNAc6S
Summary of the method: as §1

GalNAc(a1-3)Gal = target: GalNAc(a1-3)Gal
Summary of the method: as §1

GalNAc(a1-3)GalNAc = target: GalNAc(a1-3)GalNAc
Summary of the method: as §1

GalNAc(b1-3)Gal = target: GalNAc(b1-3)Gal
Summary of the method: as §1

[24] = target: GalNAc(b1-3)Gal(a1-4)Gal(b1-4)GlcNAc
Summary of the method: as §1

B1: NKp30 (Homo sapiens), O14931 (protein)
chain: MAWMLLLILIMVHPGSCALWVSQPPEIRTLEGSSAFLPCSFNASQGRLAIGSVTWFRDEVVPGKEVRNGTPERFGRLAPLASSRFLHDHQAELHIRDVRGHDASIYVCRVEVLGLGVGTGNGTRLVVRKEHPQLGAGTHADPEAPEAEGAPSVFLFPPKPKDTLMISRTPEVTCVVVDVSHEDPEVKFNWYVDGVEVHNAKTPREEQYNSTYRVVSVLTVLHQDWLNGKEYKCKVSNKALPAPIEKTISKAKGQPREPQVYTLPPSRDELTKNQVSLTCLVKGFYPSDIAVEWESNGQPENNYKTTPPVLDSDGSFFLYSKLTVDKSRWQQGNVFSCSVMHEALHNHYTQKSLSLSPGK
glycan array binding signal (z-score) [1]: 0.092 | glycan array binding signal (z-score) [2]: -0.546 | glycan array binding signal (z-score) [3]: -0.549 | glycan array binding signal (z-score) [4]: -0.223 | glycan array binding signal (z-score) [5]: -0.317 | glycan array binding signal (z-score) [6]: 0.071 | glycan array binding signal (z-score) [7]: 0.341 | glycan array binding signal (z-score) (Gal(b1-4)Glc): -0.161 | glycan array binding signal (z-score) (Gal(b1-4)Glc6S): -0.231 | glycan array binding signal (z-score) (Gal(b1-4)GlcNAc): -0.187 | glycan array binding signal (z-score) [8]: -0.21 | glycan array binding signal (z-score) [9]: -0.438 | glycan array binding signal (z-score) [10]: -0.444 | glycan array binding signal (z-score) [11]: -0.291 | glycan array binding signal (z-score) [12]: 0.253 | glycan array binding signal (z-score) [13]: -0.44 | glycan array binding signal (z-score) [14]: -0.453 | glycan array binding signal (z-score) [15]: 0.79 | glycan array binding signal (z-score) [16]: 0.041 | glycan array binding signal (z-score) [17]: -0.61 | glycan array binding signal (z-score) [18]: -0.494 | glycan array binding signal (z-score) [19]: -0.56 | glycan array binding signal (z-score) [20]: -0.288 | glycan array binding signal (z-score) [21]: -0.407 | glycan array binding signal (z-score) (Gal3S(b1-3)GalNAc): -0.265 | glycan array binding signal (z-score) (Gal3S(b1-3)GlcNAc): 0.088 | glycan array binding signal (z-score) [22]: -0.27 | glycan array binding signal (z-score) (Gal3S(b1-4)Glc): -0.02 | glycan array binding signal (z-score) (Gal3S(b1-4)Glc6S): -0.309 | glycan array binding signal (z-score) (Gal3S(b1-4)GlcNAc): -0.144 | glycan array binding signal (z-score) (Gal3S(b1-4)GlcNAc6S): -0.253 | glycan array binding signal (z-score) [23]: -0.006 | glycan array binding signal (z-score) (Gal3S4S(b1-4)GlcNAc): 0.435 | glycan array binding signal (z-score) (Gal3S6S(b1-4)GlcNAc): -0.162 | glycan array binding signal (z-score) (Gal3S6S(b1-4)GlcNAc6S): 0.66 | glycan array binding signal (z-score) (Gal4S(b1-4)GlcNAc): 1.43 | glycan array binding signal (z-score) (Gal4S6S(b1-4)GlcNAc): -0.138 | glycan array binding signal (z-score) (Gal6S(b1-4)Glc): 0.789 | glycan array binding signal (z-score) (Gal6S(b1-4)Glc6S): 0.09 | glycan array binding signal (z-score) (Gal6S(b1-4)GlcNAc): 1.31 | glycan array binding signal (z-score) (Gal6S(b1-4)GlcNAc6S): 0.261 | glycan array binding signal (z-score) (GalNAc(a1-3)Gal): 0.266 | glycan array binding signal (z-score) (GalNAc(a1-3)GalNAc): 0.254 | glycan array binding signal (z-score) (GalNAc(b1-3)Gal): 0.357 | glycan array binding signal (z-score) [24]: 0.274
